# Screen size: about 320,000 compounds; about 200 (0.062%) were called active. Inconclusive means that the source gave no clear call. Such entries were picked first, then a sample of the others. The call rests on the fitted dose curve; in most records, active means well fitted activation curve with a large enough effect; inconclusive means small, poorly fitted or top-dose-only effect; inactive means no such curve, though single readings can be large or run the other way. No potency is given beside an inconclusive call; the fits are too rough.
# Assay: qHTS assay for re-activators of p53 using a Luc reporter; further: nearly all actives have a fitted effect of over 45% in size; on activity change, positive = activation: % of control where 0% means no effect
# Details: H1299 p53-A138V BP100-luciferase reporter, luminescence, 24 h; series mostly up to 92.2 µM; activity change, positive = activation: at the top concentration
# How it was run: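 H1299 (p53-null), stable ts p53-A138V + BP100-Luc; 1000 cells/well, Opti-MEM/10% FBS; cpd 4 pt, 1:5; 24 h, 37 deg C, 5% CO2; detection reagent 10 min RT; luminescence.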
# Potency means the concentration at half of the fitted maximal effect; tags describe the fitted curve by direction and shape.
Structure (SMILES),Potency,"activity change, positive = activation"
CC(=O)Nc1ccc2nc(C)n(Cc3ccc(Cl)cc3)c(=O)c2c1,"inconclusive [activator, partial curve, poor fit]",–
c1ccc(-c2csc(N3CCCCCC3)n2)cc1,"inconclusive [activator, full curve, poor fit]",–
COc1ccc2cc(-c3ccccc3)ncc2c1,"inconclusive [activator, partial curve, poor fit]",–
C/C(=N\N(C)C)C1=C(O)c2ccccc2C1=O,"inconclusive [activator, partial curve, poor fit]",–
COc1cccc(-c2cccc(NC(=O)C3CCN(Cc4cnn(C)c4)CC3)c2)c1,"inconclusive [activator, single point]",–
CC(=O)CSc1ncnc2c1oc1ccccc12,"inconclusive [activator, partial curve, poor fit]",–
O=C(CCl)N1CCCC1c1ccc2c(c1)OCCO2 (stereo unspecified),–,inactive: -18.5%
COc1cc(/C=C2\CCC/C(=C\c3ccc(O)c(OC)c3)C2=O)ccc1O,–,inactive: -15.3%
O=C(CSc1ncccc1-c1nc2ccccc2[nH]1)N1CCc2ccccc21,"inconclusive [activator, full curve, poor fit]",–
Cc1ccc(C(=O)N/N=C/c2ccc(S(=O)(=O)O)o2)c(Cl)c1,–,inactive: -3.46%
CC(C)(Oc1ccc(Cl)cc1)C(=O)NC1CCCCC1,–,inactive: 6.34%
NC(=S)Nc1cnc2ccccc2c1,"inconclusive [activator, single point]",–
Oc1cc(Nc2cccnc2)cc2cccnc12,"inconclusive [activator, single point]",–
COc1cc(/C=N/Nc2ccccc2)ccc1OC(=O)c1cccs1,"inconclusive [activator, partial curve]",–
COC(=O)c1ccccc1SC(CC(=O)c1ccccc1)c1ccc(F)cc1 (stereo unspecified),"inconclusive [activator, single point]",–
Cc1cccc(NC(=O)CCc2c(C)nn(-c3ccc(N4CCCCC4)nn3)c2C)c1,"inconclusive [activator, partial curve, poor fit]",–
Cc1oc(-c2ccccc2)cc1C(=O)Nc1ccc(N(C)C)cc1,–,inactive: -1.05%
COc1ccc(-c2cc(C#N)nc(NN)n2)cc1,–,inactive: 4.86%
CC(C)(C)c1ccc(OCC(=O)N/N=C/C2CC=CCC2)cc1 (stereo unspecified),–,inactive: 9.39%
COc1ccc(NS(=O)(=O)c2cc(NC(=O)c3ccc(=O)[nH]c3)ccc2C)cc1,–,inactive: 21.4%
O=[N+]([O-])c1ccccc1/C=N/n1c(C2CCCCC2)n[nH]c1=S,"inconclusive [activator, partial curve, poor fit]",–

# — PubChem BioAssay AID504706 (National Center for Advancing Translational Sciences (NCATS), 2011)
